Assay results published in the supplement of paper PMC3334620.
Over roughly 33,000 sequences, “E-score (-0.5 to 0.5)” has its median near -0.053; the highest 2% begin near 0.37. The list shows a part of the results.

These sequences were tested against Hap1 (UniProt P0CE41) (assay: PBM E-score (8-mer binding enrichment) (E-score (-0.5 to 0.5)); higher = stronger / more preferred TF binding; most listed sequences are background and not binding sites). Settings: protein concentration: 200 nM; construct: GST-DNA-binding domain.
Outline: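 Universal all-10-mer Agilent arrays, double-stranded by primer extension on fresh or once-stripped slides, were probed with about 100-200 nM GST-tagged yeast transcription factors made by PURExpress. Fluorescent anti-GST detected bound protein, and masliner normalised the scans. E-scores from the Universal PBM Analysis Suite were given to each ungapped eight-base word pooled with its reverse complement.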

Chain of UniProt P0CE41 (P0CE41 whole entry, the tested form may be a part): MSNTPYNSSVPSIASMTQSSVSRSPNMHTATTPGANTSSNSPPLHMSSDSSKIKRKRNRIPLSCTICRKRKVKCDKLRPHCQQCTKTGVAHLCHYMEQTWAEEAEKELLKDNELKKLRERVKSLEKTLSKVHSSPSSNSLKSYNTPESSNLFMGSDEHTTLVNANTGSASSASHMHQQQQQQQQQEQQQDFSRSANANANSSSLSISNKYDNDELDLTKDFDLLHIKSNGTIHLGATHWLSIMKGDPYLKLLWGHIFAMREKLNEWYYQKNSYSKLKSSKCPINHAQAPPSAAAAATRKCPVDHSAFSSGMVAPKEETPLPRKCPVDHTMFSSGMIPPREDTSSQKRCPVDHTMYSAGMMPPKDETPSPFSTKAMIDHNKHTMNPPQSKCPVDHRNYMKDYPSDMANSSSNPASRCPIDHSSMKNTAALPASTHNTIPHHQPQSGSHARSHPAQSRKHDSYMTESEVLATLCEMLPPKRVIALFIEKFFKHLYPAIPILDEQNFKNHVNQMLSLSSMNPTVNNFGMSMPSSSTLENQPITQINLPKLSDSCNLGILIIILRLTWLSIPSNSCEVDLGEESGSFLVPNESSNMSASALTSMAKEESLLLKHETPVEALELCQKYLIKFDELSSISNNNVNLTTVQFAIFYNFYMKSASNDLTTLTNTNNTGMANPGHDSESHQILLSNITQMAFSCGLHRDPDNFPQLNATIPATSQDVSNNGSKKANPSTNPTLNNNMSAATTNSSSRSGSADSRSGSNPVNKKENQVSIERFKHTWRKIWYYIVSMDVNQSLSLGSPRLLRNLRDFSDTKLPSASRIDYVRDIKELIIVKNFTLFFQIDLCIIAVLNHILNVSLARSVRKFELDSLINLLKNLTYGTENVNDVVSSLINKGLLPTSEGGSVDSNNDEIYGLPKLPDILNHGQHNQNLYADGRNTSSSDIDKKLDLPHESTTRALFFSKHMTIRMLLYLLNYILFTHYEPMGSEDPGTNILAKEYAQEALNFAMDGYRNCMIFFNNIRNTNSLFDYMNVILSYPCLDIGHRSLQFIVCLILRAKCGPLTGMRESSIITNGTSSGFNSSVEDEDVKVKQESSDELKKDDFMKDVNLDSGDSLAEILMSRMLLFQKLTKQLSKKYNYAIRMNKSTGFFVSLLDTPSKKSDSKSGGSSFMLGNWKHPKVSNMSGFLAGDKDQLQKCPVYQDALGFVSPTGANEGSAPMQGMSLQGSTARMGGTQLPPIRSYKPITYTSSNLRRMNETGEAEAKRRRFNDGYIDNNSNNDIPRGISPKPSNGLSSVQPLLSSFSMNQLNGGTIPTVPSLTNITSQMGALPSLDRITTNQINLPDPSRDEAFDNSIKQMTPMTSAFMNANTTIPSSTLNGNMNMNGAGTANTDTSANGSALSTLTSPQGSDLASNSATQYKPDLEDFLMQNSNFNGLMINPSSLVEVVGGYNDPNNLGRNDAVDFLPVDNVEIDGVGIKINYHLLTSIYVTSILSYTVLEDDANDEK

In order of rising “PBM E-score” value:
1. ATACTTGA  -0.347
2. AGAGCCTG  -0.33
3. CAGACTGC  -0.327
4. CATCAAGG  -0.295
5. TGGTGCAA  -0.287
6. CAAATCAG  -0.279
7. TTATAGAA  -0.275
8. CTCGTAGA  -0.274
9. CCACCTGG  -0.268
10. CATCGTGC  -0.267
11. AAGACTGA  -0.252
12. CCTGCAGC  -0.248
13. GTACGCCA  -0.235
14. AAGAGCTG  -0.232
15. CTCAGTAA  -0.232
16. AAACAAAC  -0.219
17. CGCCACAG  -0.216
18. GAAGATGA  -0.214
19. ACAATTAC  -0.213
20. ACTGTGAT  -0.21
21. GCAATGCA  -0.206
22. ACATCATC  -0.203
23. CCCATGAG  -0.202
24. CGTGGTAA  -0.202
25. CCTGAGTA  -0.197
26. ATGAATGA  -0.194
27. CTCTATAA  -0.193
28. AACCCCCC  -0.191
29. ATGTCCTA  -0.188
30. CCTAAATA  -0.188
31. TGTAGGAA  -0.186
32. CACAGGCC  -0.185
33. GTCCTTGA  -0.184
34. CCTGTTTC  -0.183
35. AGCTTACA  -0.183
36. AAGCCAAA  -0.183
37. ATAGGTGG  -0.178
38. CACGTCCC  -0.171
39. ATTTGTGC  -0.17
40. AAGGTACG  -0.168
41. AACCCCTA  -0.166
42. AAGATCTG  -0.158
43. AATGGTAG  -0.158
44. ATTGAAAG  -0.157
45. TCATTGAA  -0.157
46. ACTCGTAG  -0.152
47. ATATTTCA  -0.15
48. CTCCCAAA  -0.15
49. CCTATCAG  -0.147
50. GAGGGCAC  -0.145
51. ATTGGCCA  -0.144
52. CTGACTAC  -0.141
53. AGGTTGAA  -0.139
54. AAATGCTG  -0.137
55. AGTTAGTG  -0.135
56. CATAGCCC  -0.135
57. CTGGGTGC  -0.134
58. ACATACAG  -0.134
59. GCCAGCGC  -0.134
60. AGCAGTCA  -0.123
61. TGCCAACA  -0.122
62. CATCTGGC  -0.122
63. GGGCACAC  -0.119
64. CTGGCCGC  -0.119
65. AGTCAGAC  -0.115
66. ACTAAACG  -0.112
67. TACGACGA  -0.11
68. ATTATAAG  -0.105
69. CTTGGTGA  -0.102
70. GAAAATGC  -0.102
71. GCTTAGGA  -0.101
72. CCCTTGAA  -0.101
73. AGGCCCAA  -0.0947
74. GTGATCGA  -0.094
75. AGCCCCCC  -0.0912
76. GTCGCTGA  -0.0897
77. TACTGACA  -0.0892
78. AGCACCTC  -0.0891
79. ACGTTGAG  -0.0884
80. CATTTCGA  -0.0843
81. GGCTCATA  -0.0837
82. ATGCCCCC  -0.0822
83. CTTTAACC  -0.0789
84. GAGAGCTA  -0.0786
85. ACTGGTTG  -0.078
86. CTGCGCAC  -0.0769
87. CCAATTAC  -0.0755
88. AACAAGGG  -0.0715
89. GAAGTGGA  -0.0709
90. ACTTTGGG  -0.0641
91. ACCGTACA  -0.0557
92. GTCCCTTA  -0.0555
93. AGAGATAG  -0.0547
94. ATAAGCAC  -0.0528
95. CTGGAATC  -0.051
96. CATATAGG  -0.0486
97. TAAGGAGA  -0.0462
98. CTGATAGC  -0.0461
99. CTAACTGC  -0.0433
100. GGGGCCCA  -0.0401
101. AAACTATC  -0.0386
102. GCATCTTA  -0.0356
103. TCTAAGAA  -0.033
104. ACTCAACG  -0.023
105. TATCCATA  -0.0118
106. ATTGACCC  -0.0115
107. GAATAAGA  -0.00974
108. ACATCCCT  -0.00826
109. ACTTTTGG  -0.00588
110. ATAAACTG  -0.00148
111. ACTTAAGG  0.00027
112. CCTATGCG  0.00275
113. GTGGGGAA  0.00337
114. ACCCCAAA  0.00371
115. GTACTAAC  0.00479
116. GAGACTAC  0.00699
117. GGCCTGTA  0.0111
118. CGCAGAGC  0.012
119. ACCTACAG  0.0147
120. ACCCTTTA  0.0194
121. AGCGATGG  0.0259
122. AAACCAGC  0.0273
123. AAACCGTG  0.0323
124. GTGAATGA  0.038
125. GAGCGGGA  0.0462
126. GACCTCCA  0.0493
127. ATCCCGCA  0.0537
128. ATGTTTCG  0.0559
129. GACCACAA  0.0577
130. AACGACGA  0.0635
131. ACGGCGCT  0.0711
132. CCATTACA  0.074
133. AAAATGGT  0.0826
134. TAGAATAA  0.0891
135. AACCGTCG  0.099
136. AATTAAGC  0.102
137. AAATAGAT  0.104
138. CAGATACC  0.106
139. AGACCGCG  0.108
140. AAGGCCAT  0.112
141. AACTATGC  0.116
142. ACGGCAAA  0.143
143. GGAAAGCC  0.147
144. CGCATCAA  0.148
145. CGGTCTTC  0.148
146. ATCAACGG  0.148
147. AAATTATA  0.152
148. AACGCGGC  0.154
149. GGGAGGAA  0.19
150. GGAGTATA  0.206
151. GGCCAATA  0.215
152. TAGCGGCA  0.227
153. GCCGCATA  0.234
154. CAATATCG  0.236
155. AGCCGATC  0.245
156. AAAAGCGA  0.271
157. ATCCACCG  0.271
158. CGGAGCCA  0.289
159. ACCGCTAT  0.289
160. CATTCCGA  0.294
161. GCCGGGCA  0.301
162. CCGGAAGG  0.313
163. CTCCGTGA  0.313
164. AAATACCG  0.32
165. CCGTTACA  0.339
166. CCGAAATA  0.351
167. TCCGGCGA  0.362
168. CGATTCCG  0.363
169. CCGAAAAC  0.379
170. ACCGGCGA  0.39
171. TATCGGGA  0.393
172. CCGGACAA  0.414
